From PubChem BioAssay AID488969 (Vanderbilt High Throughput Screening Facility, 2010) come the findings set out here.

Over roughly 110,000 compounds, “z-score” has its median near -0.1; the highest 2% begin near 2. The list shows a part of the results. Non-standard residues stand in square brackets, D forms with d. Residues, ends and D or L forms follow the SMILES beside them. *: point of attachment. Phe(4-Me) = Cc1ccc(C[CH](N)C(=O)O)cc1; Bz = O=C(c1ccccc1)*

The target of the test is Metabotropic glutamate receptor 8 (Rattus norvegicus) (UniProt P70579). Put plainly: rat mGluR8 modulators via GIRK flux, primary screen, cell-based, thallium flux, HTS (AID 488969). As to conditions: HEK293 rat mGluR8, GIRK (G protein-gated inwardly rectifying potassium channel) thallium flux, FluoZin2; at 10 µM; stronger effect = higher value; submaximal glutamate (EC20) added with thallium.
UniProt P70579, sequence (P70579 whole entry, looked up): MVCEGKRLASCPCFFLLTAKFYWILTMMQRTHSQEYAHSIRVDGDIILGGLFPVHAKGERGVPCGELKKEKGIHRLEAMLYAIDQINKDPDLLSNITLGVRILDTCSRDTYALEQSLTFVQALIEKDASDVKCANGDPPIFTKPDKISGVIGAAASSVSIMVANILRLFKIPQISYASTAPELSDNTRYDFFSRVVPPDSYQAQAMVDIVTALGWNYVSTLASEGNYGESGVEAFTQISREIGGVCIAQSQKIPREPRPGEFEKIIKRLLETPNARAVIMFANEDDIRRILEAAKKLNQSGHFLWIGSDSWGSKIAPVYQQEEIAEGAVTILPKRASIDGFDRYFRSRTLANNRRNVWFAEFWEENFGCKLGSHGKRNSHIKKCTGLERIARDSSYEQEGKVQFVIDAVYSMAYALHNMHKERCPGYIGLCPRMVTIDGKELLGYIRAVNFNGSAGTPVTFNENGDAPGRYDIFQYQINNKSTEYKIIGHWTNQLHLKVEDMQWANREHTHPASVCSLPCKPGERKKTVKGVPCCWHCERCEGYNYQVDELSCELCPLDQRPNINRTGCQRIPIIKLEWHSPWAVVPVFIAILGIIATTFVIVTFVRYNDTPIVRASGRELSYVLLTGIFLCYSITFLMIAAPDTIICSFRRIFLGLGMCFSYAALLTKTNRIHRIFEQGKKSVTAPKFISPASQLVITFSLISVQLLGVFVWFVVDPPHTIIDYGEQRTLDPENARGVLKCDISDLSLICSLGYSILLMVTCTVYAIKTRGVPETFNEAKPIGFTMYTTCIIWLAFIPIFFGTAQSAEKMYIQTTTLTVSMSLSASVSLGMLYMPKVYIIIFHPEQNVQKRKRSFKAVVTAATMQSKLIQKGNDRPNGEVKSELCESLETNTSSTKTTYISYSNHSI
In turn, `O=C(COC(=O)C1(c2ccc(F)cc2)CCCC1)Nc1ncc(C(F)(F)F)cc1Cl` gave a z-score of 0.214.
Molecule `COc1ccc(Nc2nc(N)nc(CSc3nnc(N)s3)n2)cc1` yielded a z-score of -0.571.
Molecule `O=C(Nc1nc2ccccc2s1)c1cc(-c2ccco2)nc2ccccc12` returned a z-score of -2.17.
The value for `O=C(COC(=O)c1ccccc1C(=O)c1ccc(Cl)cc1)NCCc1ccccc1` was -0.906; that for `COC(=O)CN1C(=S)N(c2ccc(OC)cc2)C(=O)/C1=C/c1cccs1` was -0.151.
`O=C1C2C3c4ccccc4C(c4ccccc43)[C@@H]2c2nc3ccccc3n21` (stereo not given in full) displayed a z-score of -0.00722.
For the molecule `Cc1cccc(C)c1NC(=O)CSc1nnc(-c2ccco2)c(-c2ccco2)n1`, the z-score is -0.26.
`CC(C)NS(=O)(=O)c1ccc(CCC(=O)Nc2ccc3c(c2)OCO3)cc1` yielded a z-score of -0.224.
As to `COCCNC(=O)c1snc2ccc(Cl)cc12`, the z-score was -0.262.
To `COc1ccc(OC)c(NC2c3ncccc3C(=O)N2Cc2ccco2)c1` (stereo not given) belongs 0.571.
The molecule `CCCOc1ccc(N2C(=O)CC(SCCN)C2=O)cc1` (stereo not given) registered a z-score of -0.0988.
Molecule `CC(=O)Nc1ccccc1-c1nc2ccccc2nc1OCC(=O)c1ccc(Br)cc1` gave a z-score of -0.422.
`O=C1N/C(=C\c2ccccc2)c2ccccc21` showed a z-score of -1.24.
`Cc1ccc(NC(=O)c2ccc(NCCCN3CCOCC3)c([N+](=O)[O-])c2)cc1Cl` came in with a z-score of 0.0782.
The molecule `Cc1cc(=O)c2ccc3ccccc3c2[nH]1` registered a z-score of -0.0487.
Consider `Cn1c(Cn2nnc3ccccc32)nnc1SCC(=O)NCc1ccc2c(c1)OCO2`, for which the z-score came out at 0.948.
`COc1ccc(C2CC(c3c(Cl)cccc3Cl)n3nc(N)nc3N2)cc1` (stereo not given) displayed a z-score of 0.86.
Turning to `CCN(C(=O)[C@@H]1CCCN1C(=O)c1cccs1)c1nc2cc(Cl)ccc2s1`, the z-score was -0.127.
To `O=C(O)c1ccc(CSc2nc(-c3ccccc3)cc(C(F)(F)F)n2)cc1` belongs -0.615; to `Cc1oc(-c2ccccc2Cl)nc1CSCC(=O)NC1CCCC1`, -0.0255.
The value for `CCOC(=O)C(=O)Nc1cccc(C(=O)OCC)c1` was -0.216; that for `COC(=O)CSc1nnc(Cc2ccccc2)n1-c1ccc(C)cc1` was -0.0209.
The molecule `COc1cc(-c2[nH]nc3c2C(c2ccco2)C(C#N)=C(N)O3)cc(OC)c1OC` (stereo not given) displayed a z-score of -0.152.
The value for `OCCN(Cc1ccccc1)Cc1ccc(Cl)cc1` was -0.594; that for `Cc1cccc(NCCC(=O)c2ccc(Br)cc2)c1` was -0.179.
`Cc1nn(-c2cc(C)c3ccccc3n2)c2c1C1C(C2)C1(C)C` (stereo not given) registered a z-score of 0.341.
On to `CCOc1ccc(-c2cc(C(=O)O)c3ccccc3n2)c(OCC)c1`, for which the z-score is -0.8.
In turn, `CCCCCCn1c(NCC)nc2c1c(=O)[nH]c(=O)n2C` had a z-score of 0.213.
The value for `CCC(C)(C)NC(=O)C(c1ccc(C)cc1)N(Cc1cccnc1)C(=O)c1csnn1` (stereo not given) was -0.209; that for `CCCN=CC1=C(O)CC(c2ccccc2)CC1=O` (stereo not given) was -0.493; that for `Fc1cccc(Nc2cc(-n3cccn3)ncn2)c1` was 0.149.
Take `OCCNCc1cc(Br)ccc1OCc1ccc(Cl)cc1Cl`: the z-score was found to be 0.646.
In turn, `COC(=O)c1[nH]c2ccccc2c1NC(=O)CN1CCC(C(N)=O)(N2CCCCC2)CC1` returned a z-score of 0.14.
As for `CN(CC(=O)N1CCc2[nH]c3ccc(F)cc3c2C1)CC1OCCO1`, the z-score was 0.197.
`CC(=O)Nc1cc(-c2nn(C)c(=O)c3ccccc23)ccc1N1CCCCC1` showed a z-score of -0.0628.
`Cc1nc2ncnn2c(C)c1CCC(=O)O` registered a z-score of 0.399.
Consider `Cc1ccc(CCNC(=O)CC2Oc3ccc(C)cc3NC2=O)cc1` (stereo not given), for which the z-score was -0.307.
In turn, `O=C(COc1ccc(Cl)cc1Cl)Nc1ccccn1` returned a z-score of 1.52.
To `COc1cc(-c2c(C#N)c(N)nc(SCc3ccncc3)c2C#N)cc(OC)c1OC` belongs 0.108; to `Cc1occc1C(=O)NCc1ccccc1F`, -0.28; to `CC(=O)N(c1cccc(Br)c1)C1C=CS(=O)(=O)C1` (stereo not given), 0.499.
Consider `COCc1[nH]nc2c1C1(CCSCC1)C(C#N)=C(N)O2`, for which the z-score was -0.316.
`COc1ccc(NC(=O)C(Cc2ccccc2)NC(=O)c2ccco2)cc1OC` (stereo not given) returned a z-score of 0.151.
On to `CCC1CCCCN1C(=O)c1c(-c2ccccc2)noc1C` (stereo not given), for which the z-score was 1.08.
To `CCc1cc2c(-c3ccccc3)cc(=O)oc2c(CN2CCOCC2)c1O` belongs -1.01; to `Cc1ccc(CC(NC(=O)c2ccccc2)C(=O)N2CCCC2C(=O)O)cc1` (stereo not given) (Bz-[Phe(4-Me)]-Pro-OH; configuration not given here), 0.0412.
Molecule `CCCCCn1c(CN2CCN(CCO)CC2)nc2c1c(=O)n(C)c(=O)n2C` had a z-score of -0.374.
As to `O=C(CC1C(=O)NCCN1C(=O)c1ccc(F)cc1)OCc1ccccc1` (stereo not given), the z-score is 0.883.
`CSc1ncc(Cl)c(C(=O)NCc2ccc3c(c2)OCO3)n1` yielded a z-score of 0.575.
`Cc1nnc(NC(=O)CSc2nc(C3CCCCC3)nc3ccccc23)s1` had a z-score of 0.985.
In turn, `CCC(C)Nc1nc2c(c(=O)n(C)c(=O)n2C)n1Cc1ccc(F)cc1` (stereo not given) came in with a z-score of -0.265.
Molecule `COc1cccc(OC)c1OCCOc1ccc(C(=O)c2ccccc2)cc1` came in with a z-score of -0.556.
To `O=C(NCCCN1CCOCC1)c1ccccc1-c1ccccc1` belongs 0.34.
The value for `CC(C)n1nnnc1SCC(=O)Nc1ccc2c(c1)OCO2` was 0.129; that for `CC(C)CCN(C)c1ccc(/C=N/n2cnnc2)cc1` was -0.415; that for `COC(=O)CCCCCCCCC(O)CN1CCCCC1` (stereo not given) was 0.695.
On to `O=C(Nc1ncc(C(F)(F)F)cc1Cl)C1COc2ccccc2O1` (stereo not given), for which the z-score was -0.304.
Regarding `CCCn1c(=O)c2ccccc2n2c(SCc3cc(=O)n4ccsc4n3)nnc12`, the z-score was -0.363.
As for `Cc1ccc(NS(=O)(=O)c2cc(C(=O)O)ccc2Cl)cc1`, the z-score is -0.156.
For the molecule `O=C(CCSc1nc(-c2ccc3c(c2)OCO3)cc(C(F)(F)F)n1)NCc1ccco1`, the z-score came to 0.587.
`COCCOCCn1cnc2ccccc21` gave a z-score of 0.155.
As for `Cc1nn(Cc2ccccc2)c(C)c1CCC(=O)O`, the z-score was -0.441.
In the case of `CCN(C(=O)CCc1nc(-c2ccc(OC)cc2)no1)c1cc(OC)ccc1OC`, the z-score was -0.369.
To `COC1CCCCC1Nc1ccc(C)c(C)c1` (stereo not given) belongs 0.0883; to `O=S(=O)(N1CCCCC1)n1c(Cc2ccccc2)nc2ccccc21`, 0.152.
To `Cc1cc(C)cc(NC(=O)CC2NCCNC2=O)c1` (stereo not given) belongs -0.216.
The molecule `CC(C)(C)C(=O)Nc1cc(NC(=O)C(C)(C)C)cc(C(=O)Nc2cc(C(=O)O)cc(C(=O)O)c2)c1` came in with a z-score of 0.00761.
For the molecule `C=CCN=C(C)C1=C(O)CCC1=O`, the z-score turned out to be 0.228.
To `CCCn1c(NC(=O)c2ccc(C)cc2)nc2ccccc21` belongs 1.82.
As for `Cc1nc(C(=O)Nc2ccc(Cl)cc2Cl)nn1-c1cc(OC(C)C)c(Cl)cc1Cl`, the z-score was -0.00447.
`CCC(C)Nc1nc(CN2CCOCC2)nc2sc3c(c12)CCC3` (stereo not given): the z-score is -0.57.
To `Cc1c(Br)c(C(F)(F)F)nn1CC(=O)N1CCCC1` belongs -0.485; to `Cn1c(NC(=O)c2cccs2)cc(=O)n(C)c1=O`, -0.59; to `Cc1occc1C(=O)Nc1ccc(Br)cc1F`, 0.0742.
As to `CCc1cc2cc(C(=O)Nc3ccccc3F)sc2s1`, the z-score is 0.285.
To `CC(=O)c1cc2c(cc1NC(=O)CCNC(=O)c1ccccc1Cl)OCO2` belongs -0.212.
As for `Cc1nn(Cc2ccc(Cl)c(Cl)c2)c(C)c1NC(=O)c1cn(-c2ccccc2)nc1-c1ccccc1`, the z-score was -0.043.
`CCCC1(CCC)NC(=O)N(CC(=O)N2CCN(C(=O)c3ccco3)CC2)C1=O` returned a z-score of -0.204.
The molecule `Cc1ccc(S(=O)(=O)c2c(C)nn(C(C)(C)C)c2OC(=O)C(C)(C)C)cc1` had a z-score of -0.0785.
On to `O=C(OCc1ccccc1)/C(=C/c1cccc2ccccc12)NC(=O)c1ccccc1`, for which the z-score is 0.00663.
For `O=C(NCCc1ccccc1)c1cnc2ccccn2c1=O`, the z-score was -0.0945.
For `CC(C)(C)C(=O)Nc1cccc(-c2nnc(-c3cccc(NC(=O)C(C)(C)C)c3)o2)c1`, the z-score turned out to be 0.0214.
`O=C1CCC(C(=O)Nc2cccc(C(F)(F)F)c2)N1` (stereo not given): the z-score is -0.0874.
The value for `CSc1ccc(/C=C/C(=O)c2ccc(NC(=O)C(C)C)cc2)cc1` was -0.0216.
Consider `CCOC(=O)C(C)c1nc2ccccc2[nH]c1=O` (stereo not given), for which the z-score is 0.169.
The value for `CCOc1ccc(OCC)c(NC(=O)C2CCN(S(=O)(=O)c3cccc4nonc34)CC2)c1` was 0.0264; that for `O=C(Cn1c(=O)n(-c2ccccc2)c(=O)c2sccc21)N1CCCC1` was -0.24; that for `Cn1c(=O)c2c(c3ccccc31)OC(C)(C)CC2` was -0.136.
The value for `c1ccc(-c2csc(Nc3ccc4c(c3)OCCO4)n2)cc1` was -0.448; that for `COc1ccc(S(=O)(=O)N[C@@H](C)C(=O)OCC(=O)Nc2cc3oc4ccccc4c3cc2OC)cc1` was -0.185.
As to `Cc1ccc(Nc2nc(C(=O)N3CCC(C(=O)NCCN4CCOCC4)CC3)cs2)cc1`, the z-score is 0.0131.
The value for `Cc1cc(C)cc(OCC(=O)Nc2cccc(-c3nnc(-c4ccco4)o3)c2)c1` was -0.742; that for `Cc1ccc(SCc2[nH]nc3c2C2(C(=O)Nc4ccc(F)cc42)C(C#N)=C(N)O3)cc1` (stereo not given) was 0.575.
The molecule `Cc1ccc(N(C(=O)C(F)(F)F)C(C(=O)NC2CCCCC2)c2ccncc2)cc1C` (stereo not given) had a z-score of 0.363.
To `O=C(Cn1c(O)c(/C=C2\C=Nc3ccc(Br)cc32)sc1=O)N1CCCC1` belongs 0.239; to `Clc1ccc(-c2noc(CCCOc3ccccc3)n2)cc1`, 0.161.
In the case of `CCCNS(=O)(=O)c1cccc(C(=O)NC2CCCc3ccccc32)c1` (stereo not given), the z-score was -0.314.
Take `N#CC1=C(N)Oc2n[nH]c(-c3ccccc3)c2C1c1ccsc1` (stereo not given): the z-score was determined as 0.797.
`O=C(NNc1c2ccccc2nc2ccccc12)c1cccc(O)c1` returned a z-score of -0.199.
The molecule `COC(=O)c1[nH]c2ccc(F)cc2c1NC(=O)CCN1CCN(C(=O)c2ccco2)CC1` registered a z-score of 0.844.
For the molecule `N#Cc1nc(-c2ccccc2F)oc1NCc1ccccc1`, the z-score is -0.568.
For `CC1=CC(C)(C)N2C(=O)C3(C(C#N)=C(N)OC4=C3C(=O)CC(C)(C)C4)c3c(C)c(C)cc1c32` (stereo not given), the z-score is 0.0499.
Molecule `Cc1ccc(N/C(CSC(N)=O)=N/S(=O)(=O)c2ccccc2)cc1` registered a z-score of 0.33.
Molecule `CCOC(=O)/C=c1\s/c(=C(\C#N)C(=O)OCC)n(-c2ccccc2)c1=O` showed a z-score of 1.9.
The value for `CCOC(=O)C1=C(C)NC(=O)NC1c1ccc(OCC(=O)N2CCCCC2)cc1` (stereo not given) was -0.169; that for `CCOc1ccc(/C=N/N(C)c2ccccc2)cc1OC` was -0.108.
For `O=C(CSc1nnc(-c2ccco2)n1-c1ccccc1)NCc1ccco1`, the z-score was -0.193.
For the molecule `CC(=O)N(/N=C1\Sc2ccccc2C1=O)c1cccc(C)c1`, the z-score was -0.703.
The value for `CCc1ccc2c(c1)/C(=N/OC)C(=O)N2` was -0.145; that for `COCCn1nnnc1C(c1cc2cc(OC)ccc2[nH]c1=O)N1CCC(Cc2ccccc2)CC1` (stereo not given) was 1.14.
